{
  "source": "patent US20140287419A1",
  "about": "“Compositions Having Dicamba Decarboxylase Activity and Methods of Use” (priority 2013, published 2014)",
  "molecules": {"B1": {"name": "65 (protein, listed as Ailuropoda melanoleuca)", "chain": "MAKIDVHSHILPKEWPDLKKRFGYGGWVQLQHHNKGEAKMMKDGKVFRVVQENCWDPEVRIREMDQTGVTVQALSTVPVMFSYWAKPQDTLDLCQLLNNDLAATVANHPRRFVGLGTLPMQAPELAVKEMERCVKELGFPGVQIGSHINEWDLNAKELFPVYAVAEKLNCSLFVHPWDMQMDGRMAKYWLPWLVGMPAETTTAICSMIMGGVFEKFPKLKVCFAHGGGAFPFTVGRISHGFNMRPDLCAQDNPINPKKYLGSFYTDSLVHDPLALKLLTDVIGKDKVILGTDYPFPLGELEPGKLIESMEEFEEETKDKLKAGNALAFLGLERKQFE"}, "B2": {"name": "67 (protein, listed as Amblyomma maculatum)", "chain": "MASSFSAAANLKIDLHAHVTPDRWPNLRERYGYGGWLDIKHESDKTAVMSYDDGRFFRRIESNCWNIDERIADMDRTGVTVQALSTTPVLFSYWAKPEDALDFSRLQNDFVASLVNRRPDRFVGMCTVPMQSPQLAAEELKRCVSQLGFRAVIVGSHINEWTLADRALDPFYRTVKELGVSIFVHPWDMPPSTRYNKYWLQWLVGMPAETTAAICEVIFGGLLERFPRLKLCFAHGAGSFPYTVGRIQHGFDVRPDLCAVDNKIPPKGYLGEIYADSLVHNRGSLRLLLDTLGEDRVMLGSDYPYPLGEIDRPGRLIETSGLQNSVKEKLLWKKCCELPRN"}, "B3": {"name": "66 (protein, listed as Amphimedon queenslandica)", "chain": "MASGIKVDIHNHILPERWPDLKERYGYGGWIQLHHHCQGKARMLKDGQLFRVVDENCWSPEARIKDMDNTGVTVQALSTVPVMFSYWAKPEDTLDLCKILNNDLAQTVAKFPKRFVGLGTLPMQAPELAVQELKRCIKELGFPGVQIGSHVNEWNLDATELQCVFAAAEELNAAVFVHPWDMETGGRMSKYWLPWLVGMPAETATAICSVLFGGVLERHPNLKICFAHGGGSFPYTIGRIEHGFNVRPDLCATENSVNPRSYIGKVYTDSLVHDQKALKFLVDIIGEDRVVLGSDYPFPLGEHFPGKLIESIEEWDTSLKDKLLSKNAFEFLGLDPSQYET"}},
  "assay": "14C assay with IPTG-induced recombinant E. coli cells (14CO2 capture from [14C]-carboxyl-labeled dicamba)",
  "conditions": "for Dicamba Decarboxylase Activity: IPTG-induced recombinant E. coli cells, [14C]-carboxyl-labeled dicamba, 14CO2 capture; for Enzymatic Detection level: dicamba decarboxylation activity of the protein of the given SEQ ID NO",
  "data": [
    {"molecule": "B1", "values": [
      {"measurement": "Dicamba Decarboxylase Activity", "result": "Low"},
      {"measurement": "Enzymatic Detection level", "result": "Low"}
    ]},
    {"molecule": "B2", "values": [
      {"measurement": "Dicamba Decarboxylase Activity", "result": "Low"},
      {"measurement": "Enzymatic Detection level", "result": "Low"}
    ]},
    {"molecule": "B3", "values": [
      {"measurement": "Dicamba Decarboxylase Activity", "result": "Low"},
      {"measurement": "Enzymatic Detection level", "result": "Low"}
    ]}
  ]
}
